# According to the supplement of paper PMC4604168 (melanoma cell lines):
# The list shows a part of the results. Most values come without repeats; read them as rough.
# How the values were obtained:
# Assay in all cases: cell count relative to DMSO control; melanoma cells; higher = more viable cells
# Conditions in all cases: library dose: standard library concentration; 72 h
# A101D = system: A101D
# A2058 = system: A2058
# A375 = system: A375
# 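Also: cells treated in 1,536-well plates, then fixed and DAPI-stained, with nuclei counted from automated high-throughput microscope images.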
Structure (SMILES),cell count (A101D) [%],cell count (A2058) [%],cell count (A375) [%]
"C[C@]1(O)C[C@@H](c2nc(-c3ccc4ccc(-c5ccccc5)nc4c3)c3c(N)nccn32)C1 + CC(C)(C)c1cnc(CSc2cnc(NC(=O)C3CCNCC3)s2)o1 [SNS-032] (first compound 2 µM, partner dose 0.05 µM)",76.6,87.8,75
"Cn1cnc2c(F)c(Nc3ccc(Br)cc3Cl)c(C(=O)NOCCO)cc21 [selumetinib] + Cc1cc([N+](=O)[O-])ccc1NS(=O)(=O)c1cc(Cl)ccc1Cl [FH535] (first compound 0.075 µM, partner dose 5 µM)",68.4,80.2,88.3
"C[C@]1(O)C[C@@H](c2nc(-c3ccc4ccc(-c5ccccc5)nc4c3)c3c(N)nccn32)C1 + C[C@@H](Oc1cc(-c2cnn(C3CCNCC3)c2)cnc1N)c1c(Cl)ccc(F)c1Cl [Crizotinib] (first compound 2 µM, partner dose 1 µM)",93.8,92.8,112
"Cn1cnc2c(F)c(Nc3ccc(Br)cc3Cl)c(C(=O)NOCCO)cc21 [selumetinib] + CN(C)S(=O)(=O)c1ccc2c(c1)/C(=C/c1cc3c([nH]1)CCCC3)C(=O)N2 [SU6656] (first compound 0.075 µM, partner dose 2 µM)",65.6,83.7,100
"COc1cc([C@@H]2c3cc4c(cc3[C@@H](O[C@@H]3O[C@@H]5CO[C@@H](C)O[C@H]5[C@H](O)[C@H]3O)[C@H]3COC(=O)[C@H]23)OCO4)cc(OC)c1O [etoposide] + C[C@@H](Oc1cc(-c2cnn(C3CCNCC3)c2)cnc1N)c1c(Cl)ccc(F)c1Cl [Crizotinib] (first compound 0.1 µM, partner dose 1 µM)",86.3,52.5,73.3
